Results as given in PubChem BioAssay AID1347073 (National Center for Advancing Translational Sciences (NCATS), 2019).
About 200 (0.44%) of roughly 45,000 compounds were called active. About 7% were inconclusive and are not listed. The call rests on the fitted dose curve; in most records, active means well fitted activation curve with a large enough effect; inconclusive means small, poorly fitted or top-dose-only effect; inactive means no such curve, though single readings can be large or run the other way. This is one part of the list.

assay: qHTS of TDP-43 Inhibitors: NCGC Sytravon Library Screen; conditions: yeast TDP-43 toxicity rescue, BacTiter-Glo growth, 24 h; series mostly up to 46.1 µM; growth rescue (activation): at the top concentration; further: nearly all actives have a fitted effect of over 55% in size; on growth rescue (activation): 0% is about no effect
Method in brief: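 TDP-43-expressing yeast, pregrown in raffinose, seeded at OD600 0.02 in galactose medium with compound for 24 hr at 30 deg C. Growth read by BacTiter-Glo luminescence, so rescue of toxicity appears as activation.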
Potency means the concentration at half of the fitted maximal effect.

| Structure (SMILES) | growth rescue (activation) | Potency |
| --- | --- | --- |
| COc1cccc(C2C(C#N)=C(N)Oc3cc(N)ccc32)c1OC (stereo not drawn) | inactive: 25.3% | – |
| O=C(Nc1nc(-c2ccc(F)c(F)c2)cs1)c1ccc(OCC2CCCO2)cc1 (stereo not drawn) | inactive: -12.6% | – |
| O=C(NCC(=O)N1CCOCC1)c1ccccc1 | inactive: 18.2% | – |
| Cc1cc(C)cc(NC(=O)N2CCN(C/C=C/c3ccccc3)CC2)c1 | inactive: 6.31% | – |
| CC(C)COC(=O)C(C)Nc1n[nH]c(=S)[nH]c1=O (stereo not drawn) | inactive: -21.8% | – |
| Cc1ccc(-c2cnc(C(O)c3ccc(Cl)c(Cl)c3)[nH]2)cc1 (stereo not drawn) | inactive: -0.307% | – |
| O=C(Nc1ccccc1)c1cc(C2CCCN(C(=O)C3CC3)C2)on1 (stereo not drawn) | inactive: 9.66% | – |
| C=CCn1cc(C(=O)N2CCN(C)CC2)c(=O)c2cc(S(=O)(=O)N(CC)CC)ccc21 | inactive: 0.466% | – |
| O=C(O)C1CCN(Cc2cccnc2)CC1 | inactive: 2.18% | – |
| O=C(Nc1cccc(S(=O)(=O)NC2=NCCC2)c1)c1cc(-c2ccco2)nc2ccccc12 | inactive: -0.568% | – |
| CCN=C1SC(CC(=O)Nc2ccc3c(c2)OCO3)C(=O)N1CC (stereo not drawn) | inactive: 12.9% | – |
| COc1cc(OC)cc(-c2cn[nH]c2N)c1 | inactive: -15.2% | – |
| COc1cccc(C=Nc2ccc3c(c2)CCC3)c1O | inactive: -11.5% | – |
| O=c1[nH]c(N2CCN(Cc3ccc4c(c3)OCO4)CC2)nc2c1CCCC2 | inactive: -0.544% | – |
| N#CCCN(C(=O)COC(=O)Cc1ccc(Br)cc1)c1ccccc1 | inactive: -4.99% | – |
| O=C(c1ccccc1F)N1CCN(Cc2nc3sc4c(c3c(=O)[nH]2)CCCC4)CC1 | inactive: 21.2% | – |
| CCOc1cc(NC(=S)NCc2ccco2)c(OCC)cc1NC(=O)C1CC1 | inactive: 12.6% | – |
| CCOC(=O)c1c(CSc2cccs2)n(C)c2cc(Br)c(O)c(CN(C)C)c12 | inactive: 0.118% | – |
| COc1ccc(N(C)C(=O)CCS(=O)(=O)c2cccc3nsnc23)cc1 | inactive: 3.54% | – |
| O=C(COC(=O)CCc1ccc(S(=O)(=O)N2CCOCC2)cc1)NCc1ccc(Cl)cc1 | inactive: 7.38% | – |
| Cc1ccccc1NC(=O)C1CCCN(C(=O)NCc2ccccc2)C1 (stereo not drawn) | inactive: 1.05% | – |
| CC(C)CC(CC(C)C)=NNC(=O)c1ccc2c(c1)OCO2 | inactive: 21.7% | – |
| CCOc1ccc(-c2cc(C(=O)Nc3ccc(C)c(NS(C)(=O)=O)c3)[nH]n2)c(C)c1 | inactive: 5.88% | – |
| O=C(CCc1ccccc1)NCCSCc1c(F)cccc1Cl | inactive: 21% | – |
| COc1ccc(OC)c(C(c2c(C)[nH][nH]c2=O)c2c(C)[nH][nH]c2=O)c1 | inactive: -34.3% | – |
| COc1cc(/C=N/N2CCCCC2)cc(OC)c1O | inactive: -1.47% | – |
| CN(CC(=O)NCc1ccccn1)S(=O)(=O)c1ccc(Cl)cc1 | inactive: 1.56% | – |

| Structure (SMILES) | growth rescue (activation) | Potency |
| --- | --- | --- |
| Cc1ccc(S(=O)(=O)NN=C2CCC(C(C)(C)C)CC2)cc1[N+](=O)[O-] (stereo not drawn) | inactive: 27.1% | – |
| Cc1oc(C(C)(C)C)cc1C(=O)Nc1cccc(/C=C\C(=O)O)c1 | inactive: 3.91% | – |
| O=C(COC(=O)CC1Sc2ccccc2NC1=O)NCc1ccccc1 (stereo not drawn) | inactive: -3.75% | – |
| Cc1ccc(NC(=S)Nc2ccc(S(=O)(=O)N3CCOCC3)cc2)cc1S(=O)(=O)N1CCOCC1 | inactive: -22.3% | – |
| c1cc2c(cc1-c1[nH]ncc1CN1CC3C[C@@H]4CC1C[C@H](C3)C4)OCO2 | inactive: -3.12% | – |
| CC(=O)c1c(C)[nH]c(C(=O)Nc2cccc(S(=O)(=O)N(C)c3ccccc3)c2)c1C | inactive: -11.2% | – |
| Cc1ccc(NC(=O)CN2C(=O)NC3(CCCc4ccccc43)C2=O)c(Cl)c1 (stereo not drawn) | inactive: 5.41% | – |
| COc1ccccc1NC(=O)NNC(=O)CN1C(=O)COc2ccccc21 | inactive: 3.78% | – |
| COc1ccc(NC(=O)c2cccc3c(-c4cccnc4)coc23)cc1 | – | active: 10 µM |
| Cc1ccccc1S(=O)(=O)NC(=O)C1(C)CCN1C(=O)c1c(C)noc1C (stereo not drawn) | inactive: 7.79% | – |
| CC(OC(=O)C(NC(=O)c1ccco1)C(C)C)C(=O)Nc1ncc(Cl)cc1Cl (stereo not drawn) | inactive: 1.8% | – |
| CC(=O)c1ccc(S(=O)(=O)N(C)CC(=O)NCC2CCCCC2)cc1 | inactive: 5.53% | – |
| Cc1ccc(C(=O)NNC(=O)CCC(=O)Nc2cccc(Cl)c2C)cc1 | inactive: 16.3% | – |
| Cc1ccc(C(=O)N2CCN(c3ccc(NC(=O)c4cccnc4Cl)cc3)CC2)cc1 | inactive: 13.9% | – |
| CCCC(=O)N1CCC1(C)C(=O)NS(=O)(=O)c1ccc(OC)cc1 (stereo not drawn) | inactive: -2.79% | – |
| O=C(O)/C=C/C(=O)N(Cc1ccc2c(c1)OCO2)C1CC(=O)N(CCc2ccccc2)C1=O (stereo not drawn) | inactive: -13% | – |
| COc1ccc(C2Nc3ccccc3C(=O)N2c2ccccc2)cc1CN1CCOCC1 (stereo not drawn) | inactive: 1.97% | – |
| CC(C)(C)c1ccc(-c2nnc(SCC(=O)Nc3sc4c(c3C#N)CCCC4)o2)cc1 | inactive: 29.6% | – |
| Oc1ccccc1Nc1ncnc2c1oc1ccccc12 | inactive: 1.57% | – |
| O=C(c1ccc(S(=O)(=O)N2CCCC2)cc1)N1CCN(c2ccccc2F)CC1 | inactive: -14.4% | – |
| Cc1ccc(S(=O)(=O)N2CCCC(C(=O)N3CCN(c4ccccc4)CC3)C2)cc1 (stereo not drawn) | inactive: 7.67% | – |
| CCOC(=O)C1(CCOc2ccccc2)CCN(CCCn2cccn2)CC1 | inactive: -9.43% | – |
| CC1CCCCN1S(=O)(=O)c1ccc(N(C(=O)c2cnccn2)C(C(=O)NC2CCCC2)c2cccs2)cc1 (stereo not drawn) | inactive: 8.77% | – |
| Cc1cc(C(=O)COc2nncc3ccccc23)c(C)n1C | inactive: -13.1% | – |
| CC1(NS(=O)(=O)c2ccc(Cl)s2)CCS(=O)(=O)C1 (stereo not drawn) | inactive: -14.9% | – |
| COc1ccc(CC(=O)N/N=C(\C)CC(=O)Nc2ccc(N(C)C)cc2)cc1OC | inactive: -11.9% | – |
